Values marked as one replicate rest on one cluster of the flow cell; about a third of the high ones do not repeat.
Tested on: ATP
Assay: switch fluorescence ratio, 500 uM ATP over buffer (Cy3 cluster intensity, sum of 5 cycles each) (fold (ratio)); higher = stronger signal-on switching upon ATP binding; sequences stand for … in TCGTCGGCAGCGTCAGATGTGTATAAGAGACAGTTTTTTTTTTTTTTTTTTTTTTTTT…TC
Conditions: aptamer strand: ATP DNA aptamer (quencher-CACCTGGGGGAGTATTGCGGAGGAAGG + anchor), 100 nM annealed; ATP concentration: 500 uM; one replicate
How it was run: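 Exposure to 500 uM ATP lasted 15 min at 22 °C before imaging, and a selection-buffer image was taken beforehand, for Cy3-labelled switching-strand clusters on a modified Illumina MiSeq flow-cell annealed to 100 nM quencher-labelled ATP aptamer. Five buffer/ATP cycles were run with NaOH stripping and re-annealing between them. The fluorescence ratio per cluster is summed target-cycle over summed buffer-cycle Cy3 intensity, averaged per switch-domain sequence. Clusters outside 100-1000 RFU were excluded.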

| Sequence | switch fluorescence ratio |
| --- | --- |
| TTATCCTAAA | 1.01 |
| GTTGGATGAA | 0.974 |
| AATGGATCTT | 0.93 |
| ATATTAATA | 1.01 |
| TGAGCGTGCT | 1.03 |
| TCTTTGACCG | 1 |
| TGGCACCATG | 1.02 |
| AGATTGAGAG | 0.995 |
| CGACATGTCG | 0.961 |
| CAATGCGACC | 2.74 |
| AGGTCCTGGT | 0.981 |
| CCAAAATCGG | 0.992 |
| AGGGCCTTCT | 1 |
| GGGTGGATCC | 1.03 |
| TCTCGAAAGC | 1.2 |
| GACAGACTAT | 1.05 |
| AGGGTCACTG | 1.02 |
| AAATGTTAAA | 1.01 |
| ACTCAGTTAG | 1.08 |
| TATGTGATGC | 1.04 |
| GCTAACGTAA | 1.3 |
| TCAGTCCGGT | 0.97 |
| TCCAGCTGC | 1.18 |
| TCGTGGCTTG | 1 |
| TTCAGGGTC | 1.04 |
| CACAAGCCTA | 0.967 |

| Sequence | switch fluorescence ratio |
| --- | --- |
| CTTTAGTGCT | 1.03 |
| CCTATTAGGC | 0.887 |
| GCCACCTACC | 1.52 |
| TTAGTTTGAT | 0.985 |
| ATTGGTTCGG | 0.95 |
| AAGAGACGTT | 0.947 |
| AGCGTGTTTG | 1.02 |
| CACAAATCTA | 1.05 |
| ATTATGCTCT | 1.03 |
| TTCACAGAGG | 0.996 |
| CAGACTGGTG | 1.02 |
| GACCCATATG | 1.04 |
| CAGAAAGCTC | 1.02 |
| TGATACCTCG | 1.04 |
| GACCTGTTCG | 0.979 |
| ACTTCGGCTG | 1.05 |
| GTGGTCTGGG | 0.996 |
| CATTTGAAGG | 1.02 |
| ATTGATCTGA | 1.01 |
| TTGTTTCTAA | 1.03 |
| TAGGTACCCT | 1.02 |
| ATCTATTTCC | 1.02 |
| CTCTTCCTAG | 1.13 |
| ACGGATACTT | 1.26 |
| TAGTGGCTGT | 1 |
| GGACATCTTA | 0.991 |

| Sequence | switch fluorescence ratio |
| --- | --- |
| CCTGAGGTAT | 1.02 |
| CCGATTAGAG | 1.05 |
| AAGCTGACCG | 1.05 |
| AGGGAATCAC | 1.06 |
| CTAATCAAGC | 0.996 |
| AAAGCGCCTG | 1.03 |
| TGTTGGCCTG | 1.02 |
| GCTGAAGCGC | 0.976 |
| GCAGTTGTTG | 0.998 |
| ACCGTGAAAT | 1.01 |
| GTAATCGATG | 1.02 |
| GCAGCCCATG | 1.01 |
| AGGGCCTGCG | 0.959 |
| TAGACTTG | 0.905 |
| GGTTAGTTTG | 1.03 |
| TACTTATTTC | 1.02 |
| TGGGTGGGCA | 1.02 |
| GGGCTTGATG | 1.02 |
| GCCCTCTTGG | 1.05 |
| TGTCGTTGCT | 0.998 |
| CCAAGCTTAT | 1.8 |
| ACAAGACAC | 1.13 |
| AAAGGCCAAG | 0.97 |
| GGCTCTGCG | 1 |
| GCACAGGGAC | 1.16 |
| CACCGTAGGG | 1.01 |

| Sequence | switch fluorescence ratio |
| --- | --- |
| AGTTCATCTC | 0.986 |
| TCGGATGTGT | 0.979 |
| TTTTTCCTT | 1.03 |
| CGGTTATCCC | 0.994 |
| CACGGCTGCC | 1.03 |
| ATATTTTGGT | 0.992 |
| AGAGCATCAC | 1.11 |
| TGCCCGCTGA | 1.25 |
| ACCGAGTCAG | 1.25 |
| TGTCTTGGGA | 0.96 |
| CTATGGGGTA | 0.987 |
| CGGCGCGCCT | 0.996 |
| GGGGTACGTC | 1 |
| CGGTCCGATG | 1.04 |
| TCTAAGAAGG | 0.948 |
| GCGTTACCGC | 1 |
| CGGCGTTGTG | 1.02 |
| GTGATAGTTT | 0.99 |
| GGCGCCCAAA | 0.993 |
| TCGGGTCATA | 0.97 |
| TTTAGCGGGC | 1.07 |
| TAAAGGATGT | 1.03 |
| AACTCACCA | 1.14 |
| AGCAAGCGGC | 1.02 |
| TAAACGTTTA | 1.01 |
| CAAGCCAGGT | 1.27 |

| Sequence | switch fluorescence ratio |
| --- | --- |
| CTGACTACGA | 1.24 |
| TCTCACGTTT | 0.994 |
| GACACAACC | 1.3 |
| CATGGCGGTG | 1 |
| AGGCGACGCA | 1.07 |
| GGCTACCACG | 1.08 |
| TCTAACCGCC | 1.7 |
| AGTCTCGCGT | 0.989 |
| AATGATTCGA | 0.988 |
| ATTAAGGGCC | 1 |
| CACTTTAACA | 1.08 |
| AAATCTTGAT | 1 |
| TGCGCCAGCT | 1 |
| TAGAGCGCGG | 1.1 |
| TCGGTCACGT | 0.965 |
| ACTATTACTC | 1.19 |
| AGGATAGCCC | 0.996 |
| TCCCATCCTG | 1.02 |
| ATGGGGAACA | 1.02 |
| CTTGTCGCGA | 0.984 |
| AAGTGAGGGA | 0.978 |
| AATGGGTTGC | 1 |
| GCTGGCCTTG | 1.01 |
| ACGTTTTACT | 1.19 |
| GTACACTCTT | 1.02 |
| CGCAGGCTTC | 1.07 |

| Sequence | switch fluorescence ratio |
| --- | --- |
| GAGGTTGTGT | 0.937 |
| GACATGTCTG | 0.986 |
| AGCTCTAAG | 0.971 |
| TAGAGTATGG | 0.997 |
| TGGTATGGTC | 1.02 |
| CTTACTTAGC | 1.16 |
| CCCAACATAG | 1.03 |
| TATATGTCC | 1.05 |
| CCTAGTGCAC | 1.02 |
| ATCTTTTAGT | 1.03 |
| ATAGCCGCTT | 1.04 |
| GTGTATTGAT | 0.956 |
| TAGTTTTTG | 0.97 |
| AATAGACGGT | 1.03 |
| TATACGCGCT | 0.991 |
| AAGGCGCTCA | 0.998 |
| TCTATCATAG | 0.998 |
| GAATGTACTT | 1.06 |
| GACCTCGCGA | 2.26 |
| ATTGTCCACT | 1.12 |
| TTGGTGTAGT | 1.01 |
| AGTGAACCG | 1.06 |
| GTGTCATATG | 0.981 |

— the supplement of paper PMC10126150
